Reference: the RNAGym collection of RNA variant scans (doi:10.7554/elife.90254)
Read counts are not given, so values of variants with three or more changes are uncertain.

B1: LINE1-mini (parent)
chain: GGCAGAGCUCAACACAGCGUGGCAAAGUGGCUGUGGCUAGACUGCC

Variants of: B1
Assay: self-cleavage, relative activity (ratio to wild type); higher = more cleavage; in vitro, sequencing; the parent is a self-cleaving ribozyme
Variant GGCAGAGCUCACCACGGCGCGGCAAAGUGGCUGUGGCUAGACUGCC [A12C A16G U20C] has a self-cleavage of 0.02. Work on GGCAGAGCUCUACACAGCGUGGCAAAGUUGCUGUAUCUAGACUCCC [A11U G29U G35A G36U G44C] yielded a self-cleavage of 0.01. GGCAGAGCUCACCCCAGCGUGGCAAAGUGGCUGUGGCUAGACAGCC [A12C A14C U43A] gave a self-cleavage of 0.01. Work on GGCAGAGCUCUACACAGCAUAGCAAAGUGGCUGUGGCUGGACUGCC [A11U G19A G21A A39G] yielded a self-cleavage of 0.26. Variant GGCAGAGCUCUACACAGCGUUGCAAAAUGGCUGUGGCUUGACUGCC [A11U G21U G27A A39U] has a self-cleavage of 0. For GGCAGAGCUCUACACAGCGUCGCAAAGUGGGUCUGGCUAGACUGCC [A11U G21C C31G G33C], the self-cleavage was 0.03. GGCAGAGCUCUACACAGCUUGGCAAAGUGGCUGUGGCCAGACGGCC [A11U G19U U38C U43G] showed a self-cleavage of 0. GGCAGAGCUCUACACAGCGUGCCAAAGUGGCUAUGGCUAGACUGCC [A11U G22C G33A] showed a self-cleavage of 0.03. GGCAGAGCUCUACACACCGUGGCAAAGUUGCUGUGGCUAGACUGCC [A11U G17C G29U] showed a self-cleavage of 0.02. For GGCAGAGCUCUACACAGCGUGGCAAAGUGGCUUAGGCUAGACUGCC [A11U G33U U34A], the self-cleavage was 0.04. GGCAGAGCUCUACACAGCGAGGCAAAUUGGCUGUGGCUAGACUGCC [A11U U20A G27U] showed a self-cleavage of 0.06. GGCAGAGCUCUACACAUAGUGGCAAAGUGGCUGUGGCAUGACUGCC [A11U G17U C18A U38A A39U] showed a self-cleavage of 0.07. GGCAGAGCUCUACACAGCGUGGCAAAUUGGGUGUUGCUAGACUGCC [A11U G27U C31G G35U] gave a self-cleavage of 0. GGCAGAGCUCUACACAGCGUGGCAAAGUGGCUGUGGCGAGAGUGCC [A11U U38G C42G] gave a self-cleavage of 0. With GGCAGAGCUCUACACAGCGUGGCAAAGUGACUGUGGAGAGACUGCA [A11U G30A C37A U38G C46A] the self-cleavage was 0.01. With GGCAGAGCUCUACACACCGUGGCAAAGUGGCUGUAGCAAGACUGCC [A11U G17C G35A U38A] the self-cleavage was 0.03. Variant GGCAGAGCUCUACACAGCGCGGCAAUGUGGCUGUAGCUAGACCGCC [A11U U20C A26U G35A U43C] has a self-cleavage of 0.01. GGCAGAGCUCUACACAGCGUGUCAAAGUGGCUGUGUCUAGACUGCC [A11U G22U G36U] gave a self-cleavage of 0. With GGCAGAGCUCUACACAUCAUGGCAAAGUGGUUGUGGCUAGACUGCC [A11U G17U G19A C31U] the self-cleavage was 0.27. Variant GGCAGAGCUCACCCCACCGUGGCAAAUUGGCUGUGGCUAGACUGCC [A12C A14C G17C G27U] has a self-cleavage of 0.02. With GGCAGAGCUCUACACACCGUGUCAAAGUCGCUUUGGCUAGAAUGCC [A11U G17C G22U G29C G33U C42A] the self-cleavage was 0.02. Variant GGCAGAGCUCUACACAUCGAGGCAAAGUGGCUGGCGAUAGACUGCC [A11U G17U U20A U34G G35C C37A] has a self-cleavage of 0.02. For GGCAGAGCUCUACACAGCGUGGCAAAGUGGCUGGGGCUAGAGUGCC [A11U U34G C42G], the self-cleavage was 0. With GGCAGAGCUCUACACAGCGUGGCAAAGUGGCUGUGGCUACACUGUC [A11U G40C C45U] the self-cleavage was 0.02. GGCAGAGCUCUACACAGCGAGGCAAAGUGGCUGUGGCUAGAUUGUC [A11U U20A C42U C45U] showed a self-cleavage of 0.04. GGCAGAGCUCUACACAGCGUGGCAAAGGGGCUGUGGCUAGACUACC [A11U U28G G44A] gave a self-cleavage of 0.02. In the case of GGCAGAGCUCUACACAGCGGGGCAAAUUGGCUGUGGCUAGGCUGCC [A11U U20G G27U A41G], the self-cleavage is reported as 0. For GGCAGAGCUCUACACAGCGUGGCAAAGUUGCUGUUUCUAGACUGCC [A11U G29U G35U G36U], the self-cleavage was 0.07. In the case of GGCAGAGCUCUACACAGCGUGGCAAAGUGGCUCUGGUGAGACUGCC [A11U G33C C37U U38G], the self-cleavage is reported as 0.01. Variant GGCAGAGCUCUACACAGCGUGUCAAAGUGGCUGUGCCUUGACGGCC [A11U G22U G36C A39U U43G] has a self-cleavage of 0.02. In the case of GGCAGAGCUCACCUCAGCGUGGCAAAAUGGCUGUGGCUAGACUGCC [A12C A14U G27A], the self-cleavage is reported as 0.02. With GGCAGAGCUCACCUCAGCGUGGCAAACUGGCUGUGGCUAGACUGCC [A12C A14U G27C] the self-cleavage was 0.01. GGCAGAGCUCACCUCAGCGUGGCAAAGAGGCUGUGGCUAUACUGCC [A12C A14U U28A G40U] showed a self-cleavage of 0.01. With GGCAGAGCUCUACACAGCGUGGCAAAGUGGCUUUGGCUAGACUGCA [A11U G33U C46A] the self-cleavage was 0.02. GGCAGAGCUCUACACAGCGUAGCAAAGUGGCUGUGGCAAGACUGUC [A11U G21A U38A C45U] showed a self-cleavage of 0.04. In the case of GGCAGAGCUCACCGCAGCGUGGCAAAGUUGCUGUGGCUAGACUGCC [A12C A14G G29U], the self-cleavage is reported as 0.19. GGCAGAGCUCUACACAGCGUGGCAAAGUGGCAGUGGCUACACUGCC [A11U U32A G40C] showed a self-cleavage of 0.02. GGCAGAGCUCUACACAGCGUGUCAAAGUGGCUGUCGCUAGACUGCA [A11U G22U G35C C46A] gave a self-cleavage of 0.03. Variant GGCAGAGCUCUACACAGCGUUGCAAAGAGGCUGUCGCUAGACUGCC [A11U G21U U28A G35C] has a self-cleavage of 0.03. With GGCAGAGCUCUACACAACGUGGCAAAGUUCCUGUGGCUAGACUGCC [A11U G17A G29U G30C] the self-cleavage was 0.03. Variant GGCAGAGCUCUACACAGCGUGGCAAAGUUGCAGCGCUGAGACUGCC [A11U G29U U32A U34C G36C C37U U38G] has a self-cleavage of 0. Variant GGCAGAGCUCACCCCAGCGUGGCAAAGUGGCUGUGGCUAGCCUGCU [A12C A14C A41C C46U] has a self-cleavage of 0.01. Work on GGCAGAGCUCUACACAGCGCGGCAACAUGGCUGUGGGUAGACUGCC [A11U U20C A26C G27A C37G] yielded a self-cleavage of 0. Variant GGCAGAGCUCUACACAGCGUGGCAAAGUGGCUGUCACUAGACUGCC [A11U G35C G36A] has a self-cleavage of 0. In the case of GGCAGAGCUCACCUCAGCAUGGAAAAGUGACUGUAGCUAGACUGCC [A12C A14U G19A C23A G30A G35A], the self-cleavage is reported as 0.03. GGCAGAGCUCACCGCAGCGUGGCAAAGUGGCUGUGGCUAGACUACC [A12C A14G G44A] showed a self-cleavage of 0.06. For GGCAGAGCUCUACACAGCGUGGCAAAAUGGCUGUGGUUAGACUGCC [A11U G27A C37U], the self-cleavage was 0.01. For GGCAGAGCUCUACACAGCUUGUCAAAGUGGCAGUGGCGAGACUGCC [A11U G19U G22U U32A U38G], the self-cleavage was 0.01. Variant GGCAGAGCUCUACACAGCUUGGCAAAGUGGCUGUGUCUAGACUGCC [A11U G19U G36U] has a self-cleavage of 0.02. In the case of GGCAGAGCUCACCACGGCGUUGCAAAGUGGCUGUGGCUCGACUGCC [A12C A16G G21U A39C], the self-cleavage is reported as 0.01. With GGCAGAGCUCACCACCGCGUGGCAAAUUGGCUGUGGCUAGACUGCC [A12C A16C G27U] the self-cleavage was 0.01. Variant GGCAGAGCUCUACACAGCGUGGCAAAGUGGCUAUGGCUGGACUGCC [A11U G33A A39G] has a self-cleavage of 0.01. Work on GGCAGAGCUCACCACGGCGUGGCAAAGUGGCUGUGGCUAUACUGCC [A12C A16G G40U] yielded a self-cleavage of 0.02. In the case of GGCAGAGCUCUACACAUCUUGACAAAGUCACUGUGGCUAAACUUCC [A11U G17U G19U G22A G29C G30A G40A G44U], the self-cleavage is reported as 0.01. GGCAGAGCUCACCGCAGCGUGGAAAAGUGGCUGUGGCUAGACUGCC [A12C A14G C23A] showed a self-cleavage of 0.02. GGCAGAGCUCUACACAGCGUGGCAAAUUGACUGUGGCUAGACUGCC [A11U G27U G30A] showed a self-cleavage of 0.28.
